Laboratory results as given in the supplement of paper PMC10126150.
Values marked as one replicate rest on one cluster of the flow cell; about a third of the high ones do not repeat.

test system: ATP; experiment: switch fluorescence ratio, 500 uM ATP over buffer (Cy3 cluster intensity, sum of 5 cycles each) (fold (ratio)); higher = stronger signal-on switching upon ATP binding; sequences stand for … in TCGTCGGCAGCGTCAGATGTGTATAAGAGACAGTTTTTTTTTTTTTTTTTTTTTTTTT…TC; conditions: aptamer strand: ATP DNA aptamer (quencher-CACCTGGGGGAGTATTGCGGAGGAAGG + anchor), 100 nM annealed; ATP concentration: 500 uM; one replicate
In short: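 Imaging in selection buffer was followed by imaging after 15 min with 500 uM ATP at 22 °C, for Cy3-labelled switching-strand clusters annealed to 100 nM quencher-labelled ATP aptamer on a modified Illumina MiSeq flow-cell. Five of these buffer/ATP cycles ran, separated by NaOH stripping and re-annealing. The fluorescence ratio per cluster is summed target-cycle over summed buffer-cycle Cy3 intensity, averaged per switch-domain sequence; clusters outside 100-1000 RFU were removed.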
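Also: ATP exposure 15 min at 22 °C before imaging.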

Sequence	switch fluorescence ratio
ATGACATGCA	1.02
ATGACCACGC	1.03
ATGACCGGAA	1.03
ATGACGGGG	0.998
ATGACGTTAA	1.06
ATGAGAAAAT	0.981
ATGAGAAAT	0.974
ATGAGAGAGG	0.971
ATGAGATGTG	0.964
ATGAGCTCTA	0.964
ATGAGGCTAG	0.97
ATGAGGGTTA	1
ATGAGGTCAA	1.05
ATGAGTGGCG	0.988
ATGAGTGTCC	1.06
ATGAGTTGAG	0.994
ATGATAATGA	1.01
ATGATAGACT	0.97
ATGATATTCC	1.13
ATGATCGACC	1
ATGATCTGTG	0.949
ATGATGAAAG	0.978
ATGATGTTCC	1.04
ATGATTCTGG	1.06
ATGATTGAAT	0.994
ATGATTGGGC	0.967

Sequence	switch fluorescence ratio
ATGCAATCGC	1.47
ATGCACGGGT	1.05
ATGCAGCTGC	0.977
ATGCAGTTC	1.04
ATGCATAATA	1.02
ATGCATGATC	1.03
ATGCATTTAA	0.979
ATGCCATCAA	1.01
ATGCCCTATC	1
ATGCCGATTG	1
ATGCCGCTGA	1.01
ATGCCTATTG	0.995
ATGCCTGT	1.01
ATGCCTTTCG	1.01
ATGCGAAAGG	1.02
ATGCGCTTA	1.02
ATGCGGAGCA	1.03
ATGCGTATTG	0.981
ATGCGTGGCA	1.02
ATGCGTTATG	0.99
ATGCTACAGG	1.03
ATGCTATAGG	1.01
ATGCTATCCA	0.981
ATGCTCATTA	1.03
ATGCTTCAGC	0.992
ATGCTTCGAC	1.04

Sequence	switch fluorescence ratio
ATGCTTGGTA	1.03
ATGCTTTGCA	1.05
ATGGAAAGAT	0.994
ATGGAAAGGC	0.967
ATGGAACTGT	0.994
ATGGAGGAA	1.08
ATGGAGGATC	0.958
ATGGAGGATG	0.995
ATGGAGGTGC	1.13
ATGGAGTAAT	1.04
ATGGATCAAT	1.03
ATGGATCTTT	0.991
ATGGCCGGCG	1.17
ATGGCGCTGT	0.964
ATGGCGTGTG	1.02
ATGGCTAGGG	1.03
ATGGCTGCAC	1.01
ATGGCTTCCG	1.13
ATGGGAATTG	0.947
ATGGGCATAT	0.949
ATGGGCGCCG	0.998
ATGGGGCAGT	0.996
ATGGGGCTTC	0.954
ATGGGGTGA	0.976
ATGGTAAGC	0.975
ATGGTAATGT	0.972

Sequence	switch fluorescence ratio
ATGGTACAG	1.02
ATGGTAGACC	1.02
ATGGTAGGTT	0.941
ATGGTAGTC	0.936
ATGGTCAGCT	1.01
ATGGTCCTAT	1.06
ATGGTGCTAG	0.987
ATGGTGGTAC	1.05
ATGGTGTAAT	1
ATGGTGTGTC	0.944
ATGGTTACAT	1.05
ATGGTTGATA	1.02
ATGTAAAAGG	0.966
ATGTAAAATC	1.01
ATGTAAGGGA	0.998
ATGTACAGTA	1.07
ATGTACGTGC	1.01
ATGTACTATT	1.07
ATGTAGGGAC	1.04
ATGTAGGTG	1.09
ATGTATAGGT	1.03
ATGTCACGC	1.1
ATGTCAGCTG	1.03
ATGTCATGGT	0.941
ATGTCATGTC	0.983
ATGTCCATCG	0.999

Sequence	switch fluorescence ratio
ATGTCCTGGA	0.96
ATGTCCTTTT	0.994
ATGTCGGGGT	1.04
ATGTCGTCA	0.906
ATGTCTATCC	1.02
ATGTCTTTTA	1.01
ATGTGAAGCG	0.983
ATGTGCCAGA	0.983
ATGTGCG	0.996
ATGTGCGGAG	1
ATGTGCTTGA	0.965
ATGTGGGTCC	1.02
ATGTGTATTA	1.04
ATGTGTGGTC	0.978
ATGTTAACC	0.951
ATGTTATAGC	1.06
ATGTTCATTA	0.974
ATGTTCTTAC	1.03
ATGTTGAGTA	0.982
ATGTTGGCTT	0.982
ATGTTTGAG	0.98
ATGTTTGGTT	0.979
ATGTTTTCCA	0.978
ATTAAAAGCG	1.01
ATTAAAAGGG	0.994
ATTAACG	1.05

Sequence	switch fluorescence ratio
ATTAAGTCTG	0.953
ATTAATTC	1.02
ATTAATTG	0.935
ATTACACGGA	1.04
ATTACCCGGG	1.05
ATTACGATTA	1.07
ATTACGCCTT	1.08
ATTACGCTCG	0.987
ATTACGTAGT	1
ATTACTCGAA	1.01
ATTACTTGCT	1.03
ATTAGAACTA	0.963
ATTAGAAGCG	1.02
ATTAGATAGC	0.943
ATTAGATTCA	1.02
ATTAGCATGC	1.05
ATTAGCTGTA	1.03
ATTAGGCGAG	1
ATTAGTAAGT	1.03
ATTAGTGAT	0.982
ATTAGTGCGC	0.967
ATTATAACAA	1.01
ATTATAAGAA	0.979
ATTATACAA	0.974
ATTATACGAT	0.981
ATTATATTAT	1.01

Sequence	switch fluorescence ratio
ATTATCAGAC	1.01
ATTATCATGG	1.01
ATTATCTAGA	0.998
ATTATGATCA	0.971
ATTATGCTA	1.02
ATTATGGGTG	1.07
ATTATTTGGA	1.03
ATTCAAAGAT	1.01
ATTCACGTGG	1.01
ATTCAGTAGT	0.985
ATTCCATCGA	1.02
ATTCCATGAC	0.977
ATTCCCCACT	1.07
ATTCCCCTTA	1.06
ATTCCGGTTT	1.02
ATTCCTAAGT	0.989
ATTCGAATAC	1.3
ATTCGAATTC	0.999
ATTCGACGGC	1
ATTCGAGTAG	0.964
ATTCGATGCA	1.09
ATTCGATGGT	0.979
ATTCGATTTG	0.973
ATTCGCAGGG	1.07
ATTCGCGAAT	1.18
ATTCGCGGGG	1.04

Sequence	switch fluorescence ratio
ATTCGCGTCT	1.02
ATTCGCTCCT	1.01
ATTCGCTTGC	1.1
ATTCGGCGCT	0.978
ATTCGTACCT	1.17
ATTCGTGCGG	1.01
ATTCTAGCAG	1.04
ATTCTCGAGA	1.02
ATTCTCTAGG	0.981
ATTCTCTTTT	0.969
ATTCTGGTGA	1.03
ATTCTGTAGC	1.58
ATTCTTGAAG	0.984
ATTCTTGGTG	0.989
ATTCTTGTCC	1.03
ATTCTTGTTA	0.968
ATTGAATGGG	1.02
ATTGACCAAT	1.06
ATTGAGTACT	1
